Data published in the supplement of paper PMC8728848.
This is one part of the list.

Assays:
Test in all cases: glycan array binding signal (z-score within array); higher = stronger binding
Details in all cases: glycan notation: IUPAC condensed, linker removed
[1] = molecular target: Gal(b1-4)GlcNAc(b1-2)[Gal(b1-4)GlcNAc(b1-6)]Man(a1-6)[GlcNAc(b1-4)][Gal(b1-4)GlcNAc(b1-2)Man(a1-3)]Man(b1-4)GlcNAc(b1-4)GlcNAc
How it was run: (§1)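 Arrays were curated from the Consortium for Functional Glycomics database, 3228 in total, and kept only where the protein sequence was available. Binding is expressed as a within-array Z-score. This score was averaged across arrays of the same protein sequence at different concentrations or buffers and across linkers, and negative values can be read as non-binding.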

[2] = molecular target: Gal(b1-4)GlcNAc(b1-2)[Gal(b1-4)GlcNAc(b1-6)]Man(a1-6)[GlcNAc(b1-4)][Gal(b1-4)GlcNAc(b1-2)[Gal(b1-4)GlcNAc(b1-4)]Man(a1-3)]Man(b1-4)GlcNAc(b1-4)[Fuc(a1-6)]GlcNAc
How it was run: as §1

[3] = molecular target: Gal(b1-4)GlcNAc(b1-3)Gal(b1-3)GalNAc
How it was run: as §1

[4] = molecular target: Gal(b1-4)GlcNAc(b1-3)Gal(b1-3)GlcNAc
How it was run: as §1

[5] = molecular target: Gal(b1-4)GlcNAc(b1-3)Gal(b1-4)Glc
How it was run: as §1

[6] = molecular target: Gal(b1-4)GlcNAc(b1-3)Gal(b1-4)GlcNAc
How it was run: as §1

[7] = molecular target: Gal(b1-4)GlcNAc(b1-3)Gal(b1-4)GlcNAc(b1-2)Man(a1-3)[Gal(b1-4)GlcNAc(b1-3)Gal(b1-4)GlcNAc(b1-2)Man(a1-6)]Man(b1-4)GlcNAc(b1-4)GlcNAc
How it was run: as §1

[8] = molecular target: Gal(b1-4)GlcNAc(b1-3)Gal(b1-4)GlcNAc(b1-2)Man(a1-3)[Gal(b1-4)GlcNAc(b1-3)Gal(b1-4)GlcNAc(b1-2)Man(a1-6)]Man(b1-4)GlcNAc(b1-4)[Fuc(a1-6)]GlcNAc
How it was run: as §1

[9] = molecular target: Gal(b1-4)GlcNAc(b1-3)Gal(b1-4)GlcNAc(b1-2)[Gal(b1-4)GlcNAc(b1-3)Gal(b1-4)GlcNAc(b1-6)]Man(a1-6)[Gal(b1-4)GlcNAc(b1-3)Gal(b1-4)GlcNAc(b1-2)Man(a1-3)]Man(b1-4)GlcNAc(b1-4)GlcNAc
How it was run: as §1

[10] = molecular target: Gal(b1-4)GlcNAc(b1-3)Gal(b1-4)GlcNAc(b1-2)[Gal(b1-4)GlcNAc(b1-3)Gal(b1-4)GlcNAc(b1-6)]Man(a1-6)[Gal(b1-4)GlcNAc(b1-3)Gal(b1-4)GlcNAc(b1-2)Man(a1-3)]Man(b1-4)GlcNAc(b1-4)[Fuc(a1-6)]GlcNAc
How it was run: as §1

[11] = molecular target: Gal(b1-4)GlcNAc(b1-3)Gal(b1-4)GlcNAc(b1-3)Gal(b1-4)GlcNAc
How it was run: as §1

[12] = molecular target: Gal(b1-4)GlcNAc(b1-3)Gal(b1-4)GlcNAc(b1-3)Gal(b1-4)GlcNAc(b1-2)Man(a1-3)[Gal(b1-4)GlcNAc(b1-3)Gal(b1-4)GlcNAc(b1-3)Gal(b1-4)GlcNAc(b1-2)Man(a1-6)]Man(b1-4)GlcNAc(b1-4)GlcNAc
How it was run: as §1

[13] = molecular target: Gal(b1-4)GlcNAc(b1-3)Gal(b1-4)GlcNAc(b1-3)Gal(b1-4)GlcNAc(b1-2)Man(a1-3)[Gal(b1-4)GlcNAc(b1-3)Gal(b1-4)GlcNAc(b1-3)Gal(b1-4)GlcNAc(b1-2)Man(a1-6)]Man(b1-4)GlcNAc(b1-4)[Fuc(a1-6)]GlcNAc
How it was run: as §1

[14] = molecular target: Gal(b1-4)GlcNAc(b1-3)Gal(b1-4)GlcNAc(b1-3)Gal(b1-4)GlcNAc(b1-2)[Gal(b1-4)GlcNAc(b1-3)Gal(b1-4)GlcNAc(b1-3)Gal(b1-4)GlcNAc(b1-6)]Man(a1-6)[Gal(b1-4)GlcNAc(b1-3)Gal(b1-4)GlcNAc(b1-3)Gal(b1-4)GlcNAc(b1-2)Man(a1-3)]Man(b1-4)GlcNAc(b1-4)[Fuc(a1-6)]GlcNAc
How it was run: as §1

[15] = molecular target: Gal(b1-4)GlcNAc(b1-3)Gal(b1-4)GlcNAc(b1-3)Gal(b1-4)GlcNAc(b1-3)Gal(b1-4)GlcNAc(b1-2)Man(a1-3)[Gal(b1-4)GlcNAc(b1-3)Gal(b1-4)GlcNAc(b1-3)Gal(b1-4)GlcNAc(b1-3)Gal(b1-4)GlcNAc(b1-2)Man(a1-6)]Man(b1-4)GlcNAc(b1-4)GlcNAc
How it was run: as §1

[16] = molecular target: Gal(b1-4)GlcNAc(b1-3)Gal(b1-4)GlcNAc(b1-3)Gal(b1-4)GlcNAc(b1-3)Gal(b1-4)GlcNAc(b1-2)Man(a1-3)[Gal(b1-4)GlcNAc(b1-3)Gal(b1-4)GlcNAc(b1-3)Gal(b1-4)GlcNAc(b1-3)Gal(b1-4)GlcNAc(b1-2)Man(a1-6)]Man(b1-4)GlcNAc(b1-4)[Fuc(a1-6)]GlcNAc
How it was run: as §1

[17] = molecular target: Gal(b1-4)GlcNAc(b1-3)Gal(b1-4)GlcNAc(b1-3)Gal(b1-4)GlcNAc(b1-3)Gal(b1-4)GlcNAc(b1-2)[Gal(b1-4)GlcNAc(b1-3)Gal(b1-4)GlcNAc(b1-3)Gal(b1-4)GlcNAc(b1-3)Gal(b1-4)GlcNAc(b1-6)]Man(a1-6)[Gal(b1-4)GlcNAc(b1-3)Gal(b1-4)GlcNAc(b1-3)Gal(b1-4)GlcNAc(b1-3)Gal(b1-4)GlcNAc(b1-2)Man(a1-3)]Man(b1-4)GlcNAc(b1-4)[Fuc(a1-6)]GlcNAc
How it was run: as §1

[18] = molecular target: Gal(b1-4)GlcNAc(b1-3)Gal(b1-4)GlcNAc(b1-3)Gal(b1-4)GlcNAc(b1-3)Gal(b1-4)GlcNAc(b1-3)Gal(b1-4)GlcNAc(b1-2)Man(a1-3)[Gal(b1-4)GlcNAc(b1-3)Gal(b1-4)GlcNAc(b1-3)Gal(b1-4)GlcNAc(b1-3)Gal(b1-4)GlcNAc(b1-3)Gal(b1-4)GlcNAc(b1-2)Man(a1-6)]Man(b1-4)GlcNAc(b1-4)GlcNAc
How it was run: as §1

[19] = molecular target: Gal(b1-4)GlcNAc(b1-3)Gal(b1-4)GlcNAc(b1-3)Gal(b1-4)GlcNAc(b1-3)Gal(b1-4)GlcNAc(b1-3)Gal(b1-4)GlcNAc(b1-2)Man(a1-3)[Gal(b1-4)GlcNAc(b1-3)Gal(b1-4)GlcNAc(b1-3)Gal(b1-4)GlcNAc(b1-3)Gal(b1-4)GlcNAc(b1-3)Gal(b1-4)GlcNAc(b1-2)Man(a1-6)]Man(b1-4)GlcNAc(b1-4)[Fuc(a1-6)]GlcNAc
How it was run: as §1

[20] = molecular target: Gal(b1-4)GlcNAc(b1-3)Gal(b1-4)GlcNAc(b1-3)Gal(b1-4)GlcNAc(b1-3)Gal(b1-4)GlcNAc(b1-3)Gal(b1-4)GlcNAc(b1-2)[Gal(b1-4)GlcNAc(b1-3)Gal(b1-4)GlcNAc(b1-3)Gal(b1-4)GlcNAc(b1-3)Gal(b1-4)GlcNAc(b1-3)Gal(b1-4)GlcNAc(b1-6)]Man(a1-6)[Gal(b1-4)GlcNAc(b1-3)Gal(b1-4)GlcNAc(b1-3)Gal(b1-4)GlcNAc(b1-3)Gal(b1-4)GlcNAc(b1-3)Gal(b1-4)GlcNAc(b1-2)Man(a1-3)]Man(b1-4)GlcNAc(b1-4)[Fuc(a1-6)]GlcNAc
How it was run: as §1

[21] = molecular target: Gal(b1-4)GlcNAc(b1-3)Gal(b1-4)GlcNAc(b1-3)Gal(b1-4)GlcNAc(b1-3)Gal(b1-4)GlcNAc(b1-3)Gal(b1-4)GlcNAc(b1-3)Gal(b1-4)GlcNAc(b1-2)Man(a1-3)[Gal(b1-4)GlcNAc(b1-3)Gal(b1-4)GlcNAc(b1-3)Gal(b1-4)GlcNAc(b1-3)Gal(b1-4)GlcNAc(b1-3)Gal(b1-4)GlcNAc(b1-3)Gal(b1-4)GlcNAc(b1-2)Man(a1-6)]Man(b1-4)GlcNAc(b1-4)GlcNAc
How it was run: as §1

[22] = molecular target: Gal(b1-4)GlcNAc(b1-3)Gal(b1-4)GlcNAc(b1-3)GalNAc
How it was run: as §1

[23] = molecular target: Gal(b1-4)GlcNAc(b1-3)Gal(b1-4)GlcNAc(b1-3)[Gal(b1-4)GlcNAc(b1-3)Gal(b1-4)GlcNAc(b1-6)]GalNAc
How it was run: as §1

[24] = molecular target: Gal(b1-4)GlcNAc(b1-3)Gal(b1-4)GlcNAc(b1-6)[Gal(b1-3)]GalNAc
How it was run: as §1

[25] = molecular target: Gal(b1-4)GlcNAc(b1-3)Gal(b1-4)[Fuc(a1-3)]GlcNAc(b1-3)Gal(b1-4)[Fuc(a1-3)]GlcNAc
How it was run: as §1

[26] = molecular target: Gal(b1-4)GlcNAc(b1-3)GalNAc
How it was run: as §1

[27] = molecular target: Gal(b1-4)GlcNAc(b1-3)[Fuc(a1-3)GlcNAc(b1-6)]Gal(b1-4)Glc
How it was run: as §1

[28] = molecular target: Gal(b1-4)GlcNAc(b1-3)[Gal(b1-4)GlcNAc(b1-6)]Gal(b1-4)GlcNAc
How it was run: as §1

[29] = molecular target: Gal(b1-4)GlcNAc(b1-3)[GlcNAc(b1-6)]Gal(b1-4)GlcNAc
How it was run: as §1

[30] = molecular target: Gal(b1-4)GlcNAc(b1-6)Gal(b1-4)GlcNAc
How it was run: as §1

[31] = molecular target: Gal(b1-4)GlcNAc(b1-6)GalNAc
How it was run: as §1

[32] = molecular target: Gal(b1-4)GlcNAc(b1-6)[Gal(b1-3)]GalNAc
How it was run: as §1

[33] = molecular target: Gal(b1-4)GlcNAc(b1-6)[Gal(b1-4)GlcNAc(b1-3)]GalNAc
How it was run: as §1

Gal(b1-4)GlcNAc6P = molecular target: Gal(b1-4)GlcNAc6P
How it was run: as §1

Gal(b1-6)Gal = molecular target: Gal(b1-6)Gal
How it was run: as §1

Gal3S(b1-3)GalNAc = molecular target: Gal3S(b1-3)GalNAc
How it was run: as §1

Gal3S(b1-3)GlcNAc = molecular target: Gal3S(b1-3)GlcNAc
How it was run: as §1

[34] = molecular target: Gal3S(b1-3)[Fuc(a1-4)]GlcNAc
How it was run: as §1

B1: FliC (Pseudomonas aeruginosa), P72151 (protein)
chain: MALTVNTNIASLNTQRNLNASSNDLNTSLQRLTTGYRINSAKDDAAGLQISNRLSNQISGLNVATRNANDGISLAQTAEGALQQSTNILQRIRDLALQSANGSNSDADRAALQKEVAAQQAELTRISDTTTFGGRKLLDGSFGTTSFQVGSNAYETIDISLQNASASAIGSYQVGSNGAGTVASVAGTATASGIASGTVNLVGGGQVKNIAIAAGDSAKAIAEKMDGAIPNLSARARTVFTADVSGVTGGSLNFDVTVGSNTVSLAGVTSTQDLADQLNSNSSKLGITASINDKGVLTITSATGENVKFGAQTGTATAGQVAVKVQGSDGKFEAAAKNVVAAGTAATTTIVTGYVQLNSPTAYSVSGTGTQASQVFGNASAAQKSSVASVDISTADGAQNAIAVVDNALAAIDAQRADLGAVQNRFKNTIDNLTNISENATNARSRIKDTDFAAETAALSKNQVLQQAGTAILAQANQLPQAVLSLLR
- glycan array binding signal (z-score) [1]: -0.226
- glycan array binding signal (z-score) [2]: 0.581
- glycan array binding signal (z-score) [3]: -0.256
- glycan array binding signal (z-score) [4]: -0.142
- glycan array binding signal (z-score) [5]: -0.192
- glycan array binding signal (z-score) [6]: -0.122
- glycan array binding signal (z-score) [7]: -0.105
- glycan array binding signal (z-score) [8]: -0.16
- glycan array binding signal (z-score) [9]: -0.183
- glycan array binding signal (z-score) [10]: 0.127
- glycan array binding signal (z-score) [11]: -0.189
- glycan array binding signal (z-score) [12]: 0.114
- glycan array binding signal (z-score) [13]: -0.104
- glycan array binding signal (z-score) [14]: 0.438
- glycan array binding signal (z-score) [15]: -0.091
- glycan array binding signal (z-score) [16]: -0.062
- glycan array binding signal (z-score) [17]: 0.871
- glycan array binding signal (z-score) [18]: 0.011
- glycan array binding signal (z-score) [19]: -0.216
- glycan array binding signal (z-score) [20]: 3.23
- glycan array binding signal (z-score) [21]: -0.11
- glycan array binding signal (z-score) [22]: -0.104
- glycan array binding signal (z-score) [23]: -0.087
- glycan array binding signal (z-score) [24]: -0.155
- glycan array binding signal (z-score) [25]: -0.157
- glycan array binding signal (z-score) [26]: -0.228
- glycan array binding signal (z-score) [27]: -0.228
- glycan array binding signal (z-score) [28]: -0.145
- glycan array binding signal (z-score) [29]: -0.262
- glycan array binding signal (z-score) [30]: -0.187
- glycan array binding signal (z-score) [31]: -0.096
- glycan array binding signal (z-score) [32]: -0.192
- glycan array binding signal (z-score) [33]: -0.129
- glycan array binding signal (z-score) (Gal(b1-4)GlcNAc6P): -0.18
- glycan array binding signal (z-score) (Gal(b1-6)Gal): -0.07
- glycan array binding signal (z-score) (Gal3S(b1-3)GalNAc): -0.09
- glycan array binding signal (z-score) (Gal3S(b1-3)GlcNAc): -0.053
- glycan array binding signal (z-score) [34]: -0.104
